Measured values published in PubChem BioAssay AID1347073 (National Center for Advancing Translational Sciences (NCATS), 2019).
In all, about 45,000 compounds went through this assay and about 200 (0.44%) were called active. About 7% were inconclusive and are not listed. Calls follow the shape of the dose curve; as a rule, active = well fitted activation curve with a large enough effect; inconclusive = small, poorly fitted or top-dose-only effect; inactive = no such curve, though single readings can be large or run the other way. This is one part of the list.

assay: qHTS of TDP-43 Inhibitors: NCGC Sytravon Library Screen; settings: yeast TDP-43 toxicity rescue, BacTiter-Glo growth, 24 h; series mostly up to 46.1 µM; growth rescue (activation): at the top concentration; also: 0% is about no effect; nearly all actives have a fitted effect of over 55% in size
Summary of the method: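 TDP-43-expressing yeast, pregrown in raffinose, seeded at OD600 0.02 in galactose medium with compound for 24 hr at 30 deg C. Growth read by BacTiter-Glo luminescence, so rescue of toxicity appears as activation.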

SMILES	growth rescue (activation)
O=C(C[n+]1ccccc1)N/N=C/c1cccs1	inactive: -12.6%
O=C(O)C1=NN(c2c(F)c(F)cc(F)c2F)C(=O)CC1	inactive: 3.57%
CCOC(=O)c1[nH]cnc1C(=O)Nc1cccc(OC)c1	inactive: 7.24%
CN(CCCN1CCCCC1)C(=O)c1cc(COc2ccc(F)cc2F)on1	inactive: -6.74%
COc1cc(/C=N/NC(=O)CC23CC4CC(CC(C4)C2)C3)cc(Br)c1OCC(=O)N(C)C	inactive: 1.43%
CCOC(=O)N/N=C\c1sccc1C	inactive: 6.78%
CSCC(=O)N1CCCC(CNC(=O)c2ccc(-c3ccccc3)cc2)C1 (stereo not drawn)	inactive: 10.7%
Cc1nnc(SCC(=O)Nc2cccc(Cl)c2)n1CC1CCCO1 (stereo not drawn)	inactive: -6.79%
O=C(CCCC(=O)N(CC(=O)NC1CCCC1)Cc1ccccc1Cl)Nc1ccccn1	inactive: 17.1%
Cc1csc(NC(=O)c2cn3ccccc3n2)n1	inactive: -23.9%
O=C(Nc1ccc(C(=O)O)c(O)c1)c1ccccc1	inactive: -6.51%
COC(=O)c1nc[nH]c1C(=O)OC	inactive: 0.0478%
O=C(Nc1c(Cl)cccc1Cl)c1cc(-c2ccco2)on1	inactive: 9.33%
Cc1ccc(Nc2nc(C)c(CCC(C)C)c(=O)[nH]2)cc1	inactive: 21%
CC(C)n1cc(CN2CCC(n3nccc3NC(=O)CCCc3ccccc3)CC2)cn1	inactive: 8.86%
CCc1cccc(C)c1NC(=O)Cn1nc(C)n2cccc2c1=O	inactive: 0.809%
Cc1ccc2cc(/C=N/NC(=O)c3ccccc3O)c(Cl)nc2c1	inactive: 14.2%
COc1cc(C(=O)Nc2nc(-c3ccc(Cl)cc3)c(C)s2)ccc1OCC(=O)Nc1ccc(F)cc1	inactive: 10.8%
Cc1ccc(N2CCN(CC(O)COc3ccc([N+](=O)[O-])cc3)CC2)cc1 (stereo not drawn)	inactive: 1.65%
O=C(N[C@@H](Cc1c[nH]c2ccccc12)C(=O)O)c1ccc(Cl)cc1	inactive: 3.17%
N#C/C(=C\c1ccc(OCc2ccc(Cl)cc2)cc1)C(=O)Nc1cccc(C(=O)O)c1	inactive: 26.9%
S=C(Nc1ccccc1Cl)N1CCC(c2ccccc2)C1 (stereo not drawn)	inactive: 17.5%
O=C(CCc1nc(-c2ccc(F)cc2)no1)NCc1ccccc1CN1CCOCC1	inactive: 3.07%
COC(=O)c1cc(CNC(=O)Cc2ccsc2)ccc1OC	inactive: 9.93%
Cc1nn(C)cc1CN(C)C(=O)c1cc(-c2ccccc2)nc2ccc(Br)cc12	inactive: 32.7%
COc1ccc(C(C)(C)C)cc1NC(=O)C1CC(=O)N(C2CCCC2)C1 (stereo not drawn)	inactive: 6.22%
O=C(CN=C1NS(=O)(=O)c2ccccc21)OCC(=O)c1ccccc1	inactive: 12.3%

SMILES	growth rescue (activation)
Cc1ccc(CN2C(=O)S/C(=C\c3ccccc3OCC(=O)O)C2=O)cc1	inactive: 27.8%
CCOC(=O)C(C)(C)N(Cc1ccccc1C)S(=O)(=O)c1ccc(Cl)c([N+](=O)[O-])c1	inactive: 7.18%
CCOC(=O)CSc1ccc(C(=O)Nc2ccc(Cl)cc2)cn1	inactive: -1.37%
O=C(CCNC(=O)c1ccc([N+](=O)[O-])cc1)NC1CCCc2ccccc21 (stereo not drawn)	inactive: -7.23%
CC(C)C[C@H](NC(=O)NCc1ccc(F)cc1)C(=O)O	inactive: 7.61%
O=C(Nc1ccc(Cl)cc1F)C1CC1	inactive: 16%
CCOc1ccccc1-n1c(SCC(=O)Nc2ccccc2C(=O)O)nc2ccccc2c1=O	inactive: 15.2%
O=C(c1cc(COc2ccc(F)cc2Cl)on1)N(Cc1ccncc1)CC1CCCO1 (stereo not drawn)	inactive: 10.7%
C=CCSc1nc2ccccc2c(=O)n1C1CCOC(C)(C)C1 (stereo not drawn)	inactive: 17.2%
CC(=O)N1CCN(C(=O)c2ccc3c(c2)OCO3)CC1	inactive: 6.5%
CCCNC(=O)c1ccc(COc2ccc(CCC)cc2OC)o1	inactive: 3.93%
CCOC(=O)c1sc(C)c2c(=O)n(CCc3ccccc3)nnc12	inactive: 29.9%
CCOc1ccc(C(=O)NC(=S)Nc2ncccc2C)cc1[N+](=O)[O-]	inactive: 20.2%
O=C(Cn1c2ccccc2c(=O)c2ccccc21)N/N=C/c1cc([N+](=O)[O-])ccc1N1CCCCCC1	inactive: 23.2%
COC(=O)C(C)Oc1ccc2c(c1)O/C(=C\c1ccco1)C2=O (stereo not drawn)	inactive: 4.19%
CSc1ncccc1C(=O)OCc1c(F)cccc1Cl	inactive: 9.73%
CCC1CCCCN1S(=O)(=O)c1ccc(S(=O)(=O)N(Cc2ccccn2)CC2CCCO2)cc1 (stereo not drawn)	inactive: 5.24%
C/C(=N\N(C)C)c1ccc(OCCOc2ccc([N+](=O)[O-])cc2)cc1	inactive: 43.9%
COc1ccc(CC(=O)Nc2nc(-c3cccc([N+](=O)[O-])c3)cs2)cc1	inactive: 4.94%
O=C(Nc1ccccc1F)N(CCCN1CCOCC1)Cc1cc2cc3c(cc2[nH]c1=O)OCCO3	inactive: -28.6%
C=CCOc1ccc(C=Nc2ccc(Cl)cc2)c(O)c1	inactive: -3.51%
COc1cc(OC)nc(Nc2nc(C(N)c3ccccc3)cs2)n1 (stereo not drawn)	inactive: 13%
CC(=O)Oc1cc(OC(C)=O)c2c(=O)c(-c3ccc4c(c3)OCCCO4)c(C)oc2c1	inactive: 9.73%
O=C(NCCCNC(=O)c1ccc(Cl)cc1Cl)c1ccccn1	inactive: -9.31%
O=C(CNC(=O)c1ccccn1)N=Nc1c(O)[nH]c2ccccc12	inactive: 18.8%
CCOc1ccc(N(CC(=O)N/N=C/c2cccnc2)S(C)(=O)=O)cc1	inactive: 11.3%
